According to publication PMC12136788:
Where a chain is given by its changes, count along the chain named. The list shows a part of the results.

T1: UNK ZnF1-3 (human, UniProt Q9C0B0 31-174)
T1 sequence: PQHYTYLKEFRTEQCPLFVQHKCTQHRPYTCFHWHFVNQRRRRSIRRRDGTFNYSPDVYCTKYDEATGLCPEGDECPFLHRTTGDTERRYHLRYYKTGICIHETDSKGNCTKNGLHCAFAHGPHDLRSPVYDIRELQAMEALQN

B1: chrX:20248820:20248821:+_ENSMUSG00000001924_ENSMUST00000001989|mus_mus|mus_mus_mus_hu_True|8_108 (ssRNA)
RNA: GGGAGUUCUACAGUCCGACGAUCGGCAAAGUCAGUCACCACAAAGUCAGGUUCUGCCAGUGAGGCCACCAAGGAUUUAAAGCUAAUCUUCUUAGGUACUUUGACCUGACUGACGAUGCCUCCACGGAUGUAGUCAGAGAAGUUCAACAGAGGAUUGAGCAUCA
B2: 102301495_102304970_659_CDS_ENSMUSG00000034685_ENSMUST00000049057|mouse|control|control (ssRNA)
RNA: GGGAGUUCUACAGUCCGACGAUCUUCCUGCUGGGUGCUGGCCGGUGUGAGCGAAGCCCAAAGCUGGCUGUAGGUGGAACUGACAGGCAGGCGGGCAGCUCUACGCUGGAACUGCACCCAGGGCUGGGAGCGGGCACCUGGCGACAACAGAGGAUUGAGCAUCA
B3: chr2:217001844:217001845:+_ENSG00000079246_ENST00000392132|hu_hu|hu_hu_hu_mus_False|28_38 (ssRNA)
RNA: GGGAGUUCUACAGUCCGACGAUCACCAACUUGAGGAUUAGAUCUUUUGUCAUAAGCAUAUCGGACGAUGGCGACCAUGUUUAACUCAUCCAAAGCAUGAAUCAGGGAGGAAAGUGCAACAGCUGCCGCCUCAUCAUCCUUUGCCAACAGAGGAUUGAGCAUCA
B4: chr7:141445308:141445309:+_ENSG00000106028_ENST00000265304|hu_hu|hu_hu_hu_mus_False|18_28 (ssRNA)
RNA: GGGAGUUCUACAGUCCGACGAUCUAUGAUUGUUGUUGCUUGCCGCCUCACAUUGUUUUUAUCCAUGUACUCGCCAUAGUCCACUUUCCCUUCCACAAAUAUACGAGACCCCUUUUUCACAUAUUGAUAUGCCACAUCUCUGAGCAACAGAGGAUUGAGCAUCA
B5: chr17:64801638:64801639:+_ENSG00000154229_ENST00000413366|hu_mus|hu_hu_hu_mus_False|1_78 (ssRNA)
RNA: GGGAGUUCUACAGUCCGACGAUCUAUAUAUAUAUAUACAUAUGUACACAUAUAUAGUAAGAGCCUAGUUAAACGUGUAAAGUAGCCAUUCAUUUUUAAAAUUACAUCUACAUUAAAAAAUUAAUAUAUCUGAUAGAGUGCCCACAACAGAGGAUUGAGCAUCA
B6: chr4:76721835:76721836:+_ENSG00000138768_ENST00000264904|hu_mus|hu_hu_hu_mus_True|58_68 (ssRNA)
RNA: GGGAGUUCUACAGUCCGACGAUCGUUUGGCUGGGGUUUCUGAGACGCUCUGGAAUAUAACUCAUGUUGCUAAUAAAUCCUAGUUUCCUCUAUGAAAUUCUCUUUGCCAAUCCUCUUCUCUAUUAGUUGCUUUAGUUUCUCUUUCAACAGAGGAUUGAGCAUCA
B7: chr9:66341014:66341015:+_ENSMUSG00000038664_ENSMUST00000042824|mus_mus|FALSE|FALSE (ssRNA)
RNA: GGGAGUUCUACAGUCCGACGAUCCCAUGCAGCACUGUGGCAACGGCCCGCUGAAAUCUGGCGGAUGUUUUUCCCUUGCAGAACUGUUACCAGGGUUGGUUCUCGAACGUGGUUGGUGUGGCCUAGGCCAAGCUGCCCUUCUGACAACAGAGGAUUGAGCAUCA
B8: chr1:93451714:93451715:+_ENSMUSG00000026311_ENSMUST00000027538|mus_mus|FALSE|FALSE (ssRNA)
RNA: GGGAGUUCUACAGUCCGACGAUCGCCUUCCCCACUAGGGCAAUCACCAGGCUCAGCCCAUGCUGCACACAUUGCCAGGAAGAAUCCAAAACAGAGAGACUGAAGAGGAACAAAAUUAAGUUUGUAUGUGCCUCUCAGUUGACACAACAGAGGAUUGAGCAUCA
B9: chr10:94818082:94818083:+_ENSG00000138190_ENST00000260762|hu_hu|motif|central (ssRNA)
RNA: GGGAGUUCUACAGUCCGACGAUCCUACAUGUGCUGGGACAUACCAUUCACCAAACUUCUCAGCUGUUUCACGACUGUCUCGGUCAACUUCUGUUUGUCUCGAUCAUUCUUCCUGAACUGAGCAAAUAUAUUGUUCUUUUUGCUCAACAGAGGAUUGAGCAUCA
B10: chr11:69548761:69548762:-_ENSMUSG00000005198_ENSMUST00000058470|mus_hu|motif|central (ssRNA)
RNA: GGGAGUUCUACAGUCCGACGAUCAGAUGUCGGUGAGUAGCUGGGAGACGUUGGCGAGUAGCUAGGGGAAGUGGGCGAGUAGCGGGGGGAAGUGGGUGAGUAGCUGGGAGAGGUGGGCGAGUAGCUGGGAGAGGUGGGCGAGUACAACAGAGGAUUGAGCAUCA
B11: chr8:98731313:98731314:+_ENSG00000147649_ENST00000336273|hu_hu|motif|central (ssRNA)
RNA: GGGAGUUCUACAGUCCGACGAUCAAAAGCUUUUUCCUGUUUUGGACGGGUUUUAGAGGUAUUCACUGGAAGGUCUUCUCGGAUCUCUUUUUCUAAUUCUUCUGUGUCCUGUGCAGUAGAGUUAUCUUCACCUUGCUUCUUCUUCAACAGAGGAUUGAGCAUCA
B12: chr5:65987834:65987835:+_ENSMUSG00000029203_ENSMUST00000142407|mus_mus|motif|central (ssRNA)
RNA: GGGAGUUCUACAGUCCGACGAUCGUUAUUUCACACAUUUCCUUCUUAUCUGAGAAUAUAAAGAACAGUACAAAGUUUUAGCGGCUUAAAAUAAAUAAAGAAAAACUUGUUUCCUUUGGCAUCUUUAUAAAAUAACCUACAGCACAACAGAGGAUUGAGCAUCA
B13: chr2:114674474:114674475:+_ENSG00000115091_ENST00000535589|hu_mus|FALSE|FALSE (ssRNA)
RNA: GGGAGUUCUACAGUCCGACGAUCGUCAUCCACGCCUUUCAUCACCCUCCUCUGGGCUUGGUCACCCACUUUUGCAGACUCUUUAAUGGCAAUACAUGAUGGGAUGAUAAACUGUGGCUCUGUAUUUCCAGCAUAUCCUAGUUUCAACAGAGGAUUGAGCAUCA
B14: chr1:225611761:225611762:-_ENSG00000143815_ENST00000272163|hu_mus|hu_hu_hu_mus_True|38_88 (ssRNA)
RNA: GGGAGUUCUACAGUCCGACGAUCCCAGGCCAUCGGCCUCUGACCACUUCACCAUCGACAAACUUCCUACUUGGCAUUUUCUAAAAUUAGUCUGGCCCAGGUUCCGGGGGAACUCCAGCCACUCCAGGACAGUCACCAGCAGCCCAACAGAGGAUUGAGCAUCA
B15: chr5:95128998:95128999:+_ENSG00000164292_ENST00000379982|hu_mus|FALSE|FALSE (ssRNA)
RNA: GGGAGUUCUACAGUCCGACGAUCAGCUUUUGUUCCCUUUUAAGACCACCACAGUCUUUAAAAGAUAACUAGUAAGAAGCUAUAUGGUGACUUUUAAAACAUAUUGAUUUUAGUUAUAAGAAUUUUUCCUGGAAUCCAGAAGUACAACAGAGGAUUGAGCAUCA
B16: chr12:66249844:66249845:-_ENSMUSG00000047534_ENSMUST00000052201|mus_mus|motif|central (ssRNA)
RNA: GGGAGUUCUACAGUCCGACGAUCUAACAGCUGUCUGCUAGUUCUAUCAGAUGCCUUUCCUUCAGUGAGAAAGUCCUUGCGGACAGCAGAUUUGUAAUGUGACUCUUUAGCAGAAGAUCGAGGUCUCUUUGGUGUGAUAUAACACAACAGAGGAUUGAGCAUCA
B17: chr16:38184571:38184572:+_ENSMUSG00000022812_ENSMUST00000023507|mus_hu|motif|central (ssRNA)
RNA: GGGAGUUCUACAGUCCGACGAUCCAGCUGAUACAUAUACAACUUGACAUAAAUCACAGGGAGCGUCUGUUUGGCUCGACGGUAGUGUCUGGCAACUCUGUAUACUGUUUCCGGAACAUAGUCCAGCACCAGAUUAAGAUAGACCAACAGAGGAUUGAGCAUCA
B18: chr12:73312838:73312839:-_ENSMUSG00000021087_ENSMUST00000021497|mus_hu|FALSE|FALSE (ssRNA)
RNA: GGGAGUUCUACAGUCCGACGAUCUCAGUAUCAAGUACAUAAGUGCAAAUAUCCAGAGUCCGUAAUUGAAUCCAUUAGGAACUACAGAGAAAGUAAUACAAAUUGUAAUAAAGUUAACAUGCUGGUACUUUUUAGUAACCAUACCAACAGAGGAUUGAGCAUCA
B19: chr7:141445308:141445309:+_ENSG00000106028_ENST00000265304|hu_hu|hu_hu_hu_mus_False|88_88 (ssRNA)
RNA: B4 RNA with G54A, A107C, U123C
B20: chr2:10580766:10580767:-_ENSG00000115758_ENST00000405333|hu_mus|FALSE|FALSE (ssRNA)
RNA: GGGAGUUCUACAGUCCGACGAUCCUCCUAGCCUUCCAUACUGCAUUGGUGCCAACCCUACUCUCACAAAGACAUCCCAAACUAGCAGUAAGUUAAAUGGUCCCCCCAAAUGCCUUAACACAAGCUAAACUUGCAGGCAAGAGCCAACAGAGGAUUGAGCAUCA
B21: chr7:54825262:54825263:-_ENSG00000132432_ENST00000352861|hu_hu|hu_hu_hu_mus_False|8_18 (ssRNA)
RNA: GGGAGUUCUACAGUCCGACGAUCCUGCCGGCUGGGCUCCACAAACUGCAUUACCUGAUCCAUGUUUGUUGGAUGGCGGAUUGAGAGCGUAGAGACACGUAGCUCAGGAGAGAACCGGAUGGAGGCCCACCGGAACCUGGCAACCAACAGAGGAUUGAGCAUCA
B22: chr2:198351390:198351391:-_ENSG00000144381_ENST00000345042|hu_hu|hu_hu_hu_mus_False|78_78 (ssRNA)
RNA: GGGAGUUCUACAGUCCGACGAUCUCAUUCCCACCCUCCACAGAAAGGCUGCUUCUGUUCUCAUCUGUGGUGACACAGCGCUACAGUCCUGAUGCUCACAGAACAGUAGAGAUGCCUCAGUGAUUUAAGUUGAAAGCAGGACACCAACAGAGGAUUGAGCAUCA

target: T1, UNK ZnF1-3; test: nsRBNS (natural sequence RNA bind-n-seq); RBNS binding buffer (assumed for nsRBNS): 25 mM Tris pH 7.5, 150 mM KCl, 3 mM MgCl2, 0.01% Triton X-100, 500 ug/ml BSA, 20 U/ml SUPERase-In, 4 C; UNK is unkempt and MSI1 is Musashi-1; names of the RNAs are library labels; protein concentration not given here; high values mean tight binding

First: B1
Second: B2
The binding signal of the first is higher: 1.08 enrichment R for the first, 0.249 enrichment R for the second.

Compared with B3, B4 is lower in binding signal: 1.61 enrichment R for the first, 0.72 enrichment R for the second.

Going from B5 to B6, the binding signal falls from 1.82 enrichment R to 0.415 enrichment R.

Compared with B7, B8 is higher in binding signal: 0.682 enrichment R for the first, 1.32 enrichment R for the second.

First: B9
Second: B10
The binding signal of the first is lower: 0.422 enrichment R for the first, 1.68 enrichment R for the second.

Compared with B11, B12 is higher in binding signal: 0.326 enrichment R for the first, 0.88 enrichment R for the second.

Going from B13 to B14, the binding signal rises from 0.828 enrichment R to 1.4 enrichment R.

Going from B15 to B16, the binding signal falls from 1.93 enrichment R to 0.738 enrichment R.

Compared with B17, B18 is higher in binding signal: 0.869 enrichment R for the first, 1.05 enrichment R for the second.

Going from B19 to B20, the binding signal rises from 0.784 enrichment R to 1.39 enrichment R.

Going from B21 to B22, the binding signal rises from 1.09 enrichment R to 1.4 enrichment R.
